Source: patent US20240261236A1, “METHODS OF USING NMDA RECEPTOR ANTAGONISTS” (Seelos Therapeutics, Inc., priority 2021, published 2024)

Assays:
[1] = tested on: adults with major depressive disorder (MDD) who are at imminent risk of suicide; test: MOAA/S sedation, Phase 2 Part 1; conditions: subsequent dosing days; except 1 subject with 4 units at the 6-hour time-point on Day 4
[2] = tested on: adults with major depressive disorder (MDD) who are at imminent risk of suicide; test: CADSS dissociation, Phase 2 Part 1; conditions: if observed, noted at 40 minutes post dose on Day 1

CNC1(c2ccccc2Cl)CCCCC1=O (racemic) [intranasal racemic ketamine, 1:1 mixture of the two enantiomers of ketamine: (R)-2-(2-chlorophenyl)-2-(methylamino)cyclohexanone and (S)-2-(2-chlorophenyl)-2-(methylamino)cyclohexanone]
MOAA/S score (no scores below) [1]: ≥ 5 units
time to resolution of dissociation [2]: less than 2 hours
